Patent US12540197B2, “Anti-tissue factor antibodies and antibody conjugates, compositions comprising anti-tissue factor antibodies or antibody conjugates, and methods of making and using anti-tissue factor antibodies and antibody conjugates” (SUTRO BIOPHARMA, INC., priority 2023, dated 2026)
Numbering of substitutions follows the chain as printed.

B1: 44 (antibody)
heavy: MEVQLVESGGGLVQPGGSLRLSCAASGFTIHDYVIHWVRQAPGKGLEWVGYIDPSNGYTYYADSVKGRFTISADTSKNTAYLQMNSLRAEDTAVYYCARDDQSISSPLDYWGQGTLVTVSSASTKGPSVFPLAPSSKSTSGGTAALGCLVKDYFPEPVTVSWNSGALTSGVHTFPAVLQSSGLSLSSVVTVPSSSLGTQTYICNVNHKPSNTKVDKKVEPKSCDKTHTCPPCPAPELLGGPSVFLFPPKPKDTLMISRTPEVTCVVVDVSHEDPEVKFNWYVDGVEVHNAKTKPREEQYNSTYRVVSVLTVLHQDWLNGKEYKCKVSNKALPAPIEKTISKAKGQPREPQVYTLPPSREEMTKNQVSLTCLVKGFYPSDIAVEWESNGQPENNYKTTPPVLDSDGSFLYSKLTVDKSRWQQGNVFSCSVMHEALHNHYTQKSLSLSPGK
light: [about 200 residues not given here]
modifications: non-natural residue at Y180/F404; conjugate
B2: 46 (antibody)
heavy: B1 heavy with H31S
light: [about 200 residues not given here]
modifications: non-natural residue at Y180/F404; conjugate
B3: 36 (antibody)
heavy: B1 heavy with H31S, D32G, V34I, I104L, L108F
light: [about 200 residues not given here]
modifications: pAzMeF at Y180/F404; drug conjugate
B4: 42 (antibody)
heavy: B1 heavy with H31S, D32Q, V34W, S55Y, D101Y, Q102G, I104W, S105R, S106I, P107R
light: [about 200 residues not given here]
modifications: non-natural residue at Y180/F404; conjugate

Legend:
human TF = molecular target: T1, human TF (Homo sapiens, UniProt P13726); test: Biacore off-rate and kinetic binding, human TF; conditions: Table 12, 25° C., 1:1 Langmuir
T1 construct: purchased Lake Pharma
Description: (§1) Anti-Fc polyclonal antibodies were immobilized onto a CM4 chip (Cytiva #BR100534) using amine coupling chemistry (Human Antibody Capture Kit, Cytiva #BR100839). The immobilization steps were carried out at a flow rate of 25 μL/min in 1×HBS-EP+buffer (Cytiva #BR100669). The sensor surfaces were activated for 7 min with a mixture of N-hydroxysuccinimide (NHS, 0.05 M) and 1-ethyl-3-(3-dimethylaminopropyl)-carbodiimide (EDC, 0.2 M). The anti-Fc polyclonal antibodies were injected over all 4 flow cells at a concentration of 25 μg/mL in 10 mM sodium acetate, pH 4.5, for 7 min. Ethanolamine (1 M, pH 8.5) was injected for 7 min to block any remaining activated groups. Approximately 6,000 response units (RU) of capture antibody was immobilized on each flow cell.
(§2) Off-rate and kinetic binding experiments were performed at 25° C. using 1×HBS-EP+buffer. Antibodies were injected over the anti-Fc surface at a concentration of 3 μg/mL for 12 seconds at a flow rate of 10 μL/min on flow cells 2, 3 and 4, followed by a buffer wash for 30 seconds at the same flow rate. Single point off-rate analysis was carried out using an antigen concentration of 100 nM. […] After capturing ligand (antibody) on the anti-Fc surface, the analyte (human TF, Lake Pharma; cynomolgus TF, Sino Bio #90885-C08H; mouse TF, R&D Systems #3178-PA) was bound for 180 seconds, followed by a 420 second dissociation phase at a flow rate of 50 μL/min. Between each ligand capture and analyte binding cycle, regeneration was carried out using 2 injections of 10 mM glycine pH 2.0 for 30 seconds at 30 μL/min, followed by a 30 second buffer wash step.
(§3) The data were fit with the Biacore T200 Evaluation software, using a 1:1 Langmuir binding model. KD (affinity, nM) was determined as a ratio of the kinetic rate constants calculated from the fits of the association and dissociation phases.
(§4) Anti-Fc polyclonal antibodies were immobilized onto a CM4 chip (Cytiva #BR100534) using amine coupling chemistry (Human Antibody Capture Kit, Cytiva #BR100839). The immobilization steps were carried out at a flow rate of 25 μL/min in 1×HBS-EP+buffer (Cytiva #BR100669). The sensor surfaces were activated for 7 min with a mixture of NHS (0.05 M) and EDC (0.2 M). The Anti-Fc antibodies were injected over all 4 flow cells at a concentration of 25 ug/ml in 10 mM sodium acetate, pH 4.5, for 7 min. Ethanolamine (1 M, pH 8.5) was injected for 7 min to block any remaining activated groups. Approximately 6,000 response units (RU) of capture antibody was immobilized on each flow cell. Off-rate and kinetic binding experiments were performed at 25° C. using 1×HBS-EP+buffer. Antibodies or ADCs were injected over the anti-Fc surface at a concentration of 3 μg/mL for 12 seconds at a flow rate of 10 μL/min on flow cells 2, 3 and 4, followed by a buffer wash for 30 seconds at the same flow rate. […] After capturing ligand (antibody) on the anti-Fc surface, the analyte (human TF, Lake Pharma; cynomolgus TF, Sino Bio #90885-C08H; mouse TF, R&D Systems #3178-PA) was bound for 180 seconds, followed by a 420 second dissociation phase at a flow rate of 50 μL/min. Between each ligand capture and analyte binding cycle, regeneration was carried out using 2 injections of 10 mM Glycine pH 2.0 for 30 seconds at 30 μL/min, followed by a 30 second buffer wash step. The data was fit with the Biacore T200 Evaluation software, using a 1-1 Langmuir binding model. KD (affinity, nM) was determined as a ratio of the kinetic rate constants calculated from the fits of the association and dissociation phases.

HEK293T = test: FACS cell-binding assay on parental HEK293T cells; conditions: Table 16, parental cells
Source text: (§5) HEK293T, BxPC3 cells (TF positive) and NCI-H1703 (TF negative) cells were obtained from ATCC (American Type Culture Collection) and maintained in DMEM:F12 (1:1), high glucose (Corning) supplemented with 10% heat-inactivated fetal bovine serum (ThermoScientific), 1× Penicillin/Streptomycin (Corning) and 2 mmol glutamax (Thermo Fisher Scientific). To generate cells that stably expressing human tissue factor (HEK293T-humanTF) or cynomolgus tissue factor (HEK293T-cynoTF), HEK293T cells were transfected with plasmid vectors that contain the corresponding protein sequence and stable clones were selected with puromycin.
(§6) For a fluorescence-activated cell sorting (FACS) cell-binding assay, cells were collected by Accutase and counted by the Vi-CELL Cell Viability Analyzersharvested and, then re-suspended in FACS buffer (DPBS buffer supplemented with 1% bovine serum albumin). A total of 200,000 cells in 100 μL were incubated on ice with 100 μL of anti-TF antibodies in each well of a 96-well plate. Cells were washed twice with ice-cold FACS buffer and then incubated on ice for 60 mins with 5 μg/mL Alexa 647-labeled donkey anti-human Fc antibody (Jackson ImmunoResearch). Unstained cells and cells stained with secondary antibody alone were used as controls. Cells were washed twice with FACS buffer and analyzed using a BD FACS Canto system. Geometric mean fluorescence intensities (MFI) were fitted using non-linear regression analysis with one site specific binding equation on GraphPad Prism (GraphPad Software; La Jolla, CA).

cynomolgus TF = test: Biacore off-rate and kinetic binding, cynomolgus TF; conditions: Table 12, 25° C., 1:1 Langmuir
Description: as §1, §2, §3, §4

HEK293T-human TF = molecular target: T2, HEK293T-human TF (Homo sapiens, UniProt P13726); test: FACS cell-binding assay on HEK293T-human TF cells; conditions: Table 16
T2 construct: expressed in transfected cells
Source text: as §5
as §6, with “Cells were washed twice with ice-cold FACS buffer and then incubated on ice for 60 mins with 5 μg/mL Alexa 647-labeled donkey anti-human Fc antibody (Jackson ImmunoResearch). Unstained cells and cells stained with secondary antibody alone were used as controls.” left out

[1] = system: primary human keratinocytes; test: Cell binding on primary adult human keratinocytes (flow cytometry); conditions: Table 29, primary human keratinocytes; read-out: Keratinocyte Binding Kd
Description: Since TF is expressed in human skin, anti-TF antibody 2900-A02 and 2842-B01-Hc3/Lc2 were tested in cell binding assay on primary adult human keratinocyte cells purchased from Thermo Fisher Scientific. Keratinocytes were cultured in defined keratinocyte culture medium (EpiLife Medium, Thermo Fisher Scientific) supplemented with growth supplement S7 (S0175 from Thermo Fisher Scientific) and Penicillin/Streptomycin on plates coated with keratinocyte coating matrix (Thermo Fisher Scientific).
To evaluate antibody binding activity of the anti-TF antibodies on the adult primary keratinocytes, a total of 100,000 keratinocytes per well were incubated on ice with serial dilutions of anti-TF antibodies in FACS buffer (PBS buffer supplemented with 1% bovine serum albumin, 0.05% sodium azide) for 60 minutes. Cells were washed twice with ice-cold FACS buffer and then incubated with 5 microgram/mL Alexa 647 labeled donkey anti-human Fc antibody (Jackson ImmunoResearch, West Grove, PA) on ice for another 60 minutes. Unstained cells and cells stained with secondary antibodies alone were used as controls. Samples were then washed twice using FACS buffer and analyzed using an Attune flow cytometer (Thermo Fisher). Geometric mean fluorescence intensities were fitted using non-linear regression analysis with one site specific binding equation on GraphPad Prism.

HEK293T-cyno TF = test: FACS cell-binding assay on HEK293T-cyno TF cells; design: species or system cynomolgus; conditions: Table 16
Source text: as §5
as §6, with “Cells were washed twice with ice-cold FACS buffer and then incubated on ice for 60 mins with 5 μg/mL Alexa 647-labeled donkey anti-human Fc antibody (Jackson ImmunoResearch). Unstained cells and cells stained with secondary antibody alone were used as controls.” left out

T1 sequence (P13726 33-295): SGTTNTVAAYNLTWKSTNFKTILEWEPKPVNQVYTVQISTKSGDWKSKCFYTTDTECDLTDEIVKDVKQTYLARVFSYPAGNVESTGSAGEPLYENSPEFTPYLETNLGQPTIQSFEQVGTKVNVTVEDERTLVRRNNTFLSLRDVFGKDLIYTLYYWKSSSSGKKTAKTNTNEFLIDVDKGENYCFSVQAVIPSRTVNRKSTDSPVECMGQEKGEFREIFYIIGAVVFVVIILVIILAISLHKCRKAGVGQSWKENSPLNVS
T2 sequence (P13726 33-295): as above

Molecule	Biacore human TF kinetics ka (human TF)	Biacore human TF kinetics kd (human TF)	HEK293T Bmax (MFI) (HEK293T)	Biacore cynomolgus TF kinetics ka (cynomolgus TF)	Biacore cynomolgus TF kinetics kd (cynomolgus TF)	HEK293T-human TF Bmax (MFI) (HEK293T-human TF)	Kd (HEK293T-human TF)	Kd (human TF; read-out: Biacore human TF kinetics KD)	Kd [1]	HEK293T-cyno TF Bmax (MFI) (HEK293T-cyno TF)	Kd (HEK293T-cyno TF)	Kd (cynomolgus TF; read-out: Biacore cynomolgus TF kinetics KD)
B1	362000 M⁻¹ s⁻¹	0.00196 s⁻¹	2046 MFI	164000 M⁻¹ s⁻¹	0.00309 s⁻¹	–	–	–	–	–	–	–
B2	362000 M⁻¹ s⁻¹	0.00226 s⁻¹	1253 MFI	164000 M⁻¹ s⁻¹	0.00681 s⁻¹	–	–	–	–	–	–	–
B3	303000 M⁻¹ s⁻¹	0.00144 s⁻¹	1503 MFI	285000 M⁻¹ s⁻¹	0.000743 s⁻¹	306977 MFI	1.2 nM	4.77 nM	3.1 nM	443667 MFI	14 nM	2.61 nM
B4	188000 M⁻¹ s⁻¹	0.000674 s⁻¹	1525 MFI	128000 M⁻¹ s⁻¹	0.00309 s⁻¹	–	–	–	–	–	–	–
